# According to the supplement of paper PMC5499739:
# The full ranking holds about 16,000 sequences; the median of “Z-score” is about -0.37, and the highest 2% start at about 3.1. This is one part of the list.
# System: RBM10 RRM1-ZnF-RRM2 (GST-tagged construct)
# Assay: RNAcompete 7-mer binding Z-score; higher = stronger binding preference
# Experimental: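 RNAcompete: 20 pmol GST-tagged RBM10 RNA-binding constructs were incubated with a designed RNA pool of about 241,000 sequences up to 41 nt (1.5 nmol) on glutathione beads for 30 min at 4 °C and washed. Bound RNAs were identified by microarray hybridisation. Each RNA 7-mer is scored by a one-sided Z-score of its enrichment, computed over probes that contain the 7-mer within longer pool sequences.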
row,Sequence,RNAcompete 7-mer binding Z-score
1,GGCGCUU,-0.402
2,UUCAGCU,-0.806
3,GUCGCGA,-0.26
4,UACGAGC,-0.278
5,CAUAGGG,2.13
6,AUGCCUC,-0.843
7,AUAAGCG,0.0677
8,UGCGCCG,-0.347
9,AAAAACU,-0.544
10,UGCCGUA,-0.584
11,CGAGCGA,0.723
12,ACUUAGC,-0.803
13,UUACUGA,-0.566
14,AGUUCUA,-0.694
15,UCUGGCC,-0.621
16,UGCACAA,-0.457
17,ACGCGUC,-0.282
18,CUGGAGU,0.538
19,AUCCCGU,-0.653
20,GAGCCUU,-0.887
21,UUUCGAU,-0.664
22,GCUGAAU,-0.238
23,UGACCAC,-0.613

row,Sequence,RNAcompete 7-mer binding Z-score
1,UUGCCGC,-0.766
2,ACGGCUU,-0.435
3,AGUAAAG,0.793
4,GGCAUGG,2.23
5,AAGAGCU,-0.0853
6,UGGCCGA,0.151
7,CCGCGCA,-0.497
8,GGCACCC,-0.282
9,GUCGCGG,0.687
10,CAUGCCA,-0.646
11,AAUAAUA,-0.384
12,CCAAACA,-0.617
13,GUUCGCA,-0.613
14,CCACAUU,-0.803
15,UGUUAAG,-0.0743
16,CUCGGGC,-0.322
17,CUUGGCG,-0.326
18,CGUGGUC,0.13
19,CAAAGCA,-0.0816
20,ACAAGGC,1.3
21,CCUUCUC,-0.777
22,UUAACCU,-0.752
23,CUCCAAG,-0.486

row,Sequence,RNAcompete 7-mer binding Z-score
1,UUUCUGU,-0.65
2,GUUACAU,-0.0598
3,GACUCUG,-0.865
4,UUUUUCA,-0.522
5,GGAAGUG,2.59
6,AAUAUCC,-0.763
7,CUUGUCC,-0.865
8,UCCCGCC,-0.748
9,ACACUCC,-0.795
10,UUAAGGA,0.982
11,UUCCCGU,-0.694
12,GUGGAUC,0.949
13,CACUUUG,-0.887
14,CAAGCAU,-0.402
15,GGGGAAU,3.13
16,CGACAUC,-0.617
17,CUCUAUC,-0.748
18,CUACUUA,-0.664
19,GAUGGUU,1.68
20,GAGGCCC,-0.362
21,ACCGCAG,-0.519
22,AACUAUA,-0.562
23,UGUUUGC,-0.588

row,Sequence,RNAcompete 7-mer binding Z-score
1,GGACUGG,1.64
2,UUGACAG,0.217
3,AAGUGUU,0.0969
4,CGUGAGA,0.308
5,CAUGGAG,1.7
6,GUAGCGU,0.206
7,CCUUCCU,-0.93
8,AGGAGAA,2.16
9,GCCGCCC,-0.668
10,UAAGACA,-0.114
11,ACCACUC,-0.69
12,CCUUCCG,-0.755
13,UAUGCGC,-0.537
14,AGAUCUU,-0.755
15,GGUCAUC,0.0349
16,AACUCGC,-0.887
17,AACUAAA,-0.413
18,GGUCGAA,0.782
19,UUCAAAG,-0.213
20,UUAUGCU,-0.832
21,ACCCCAG,-0.639
22,AGGAGUA,1.83
23,UCGUGUC,-0.442
